Laboratory results as given in PubChem BioAssay AID1345083 (National Center for Advancing Translational Sciences (NCATS), 2018).
Screen size: about 94,000 compounds; about 6,200 (6.6%) were called active. The inconclusive results got no clear call from the source; some entries with a clear call stand among them for comparison. Calls follow the shape of the dose curve; as a rule, active = well fitted inhibition curve with a large enough effect; inconclusive = small, poorly fitted or top-dose-only effect; inactive = flat fitted curve, though single readings scatter. Potencies of inconclusive entries are doubtful fits and often do not repeat.

Experiment: Cytotoxic Profiling in HEK 293 Cell Line of Diverse Libraries Using Quantitative High-Throughput Screening; also: nearly all actives have a fitted effect of over 60% in size
Settings: HEK 293 viability, ATP luminescence (CellTiter-Glo), 48-72 h; series mostly up to 115 µM
How it was run: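 HEK 293 seeded at 250 cells/well receive compound via pintool. After 48 or 72 hr at 37 degree Celsius, 5% CO2 and 95% humidity, CellTiter-Glo is dispensed and luminescence read following 10 min at room temperature.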
Potency is read from the fitted curve at half-maximal effect; tags tell the direction and shape of the fitted curve.

SMILES	Potency
O=C(NCCC1CCN(C(=O)Nc2ccccc2)CC1)c1ccc(F)cc1	inactive
O=C(CCC1CCCC1)NCCc1noc(C2CC2)n1	inactive
CCc1nc2c(c(-c3ccc(Cl)cc3)n1)CCN(Cc1ccc(OC)cc1)CC2	inconclusive: 50.1 µM [inhibitor, partial curve, poor fit]
Cc1nc(-c2ccccc2)n(CC(=O)Nc2cccc(Cl)c2)c(=O)c1CCO	active: 25.1 µM
COc1ccc(C(=O)N[C@H]2C[C@@H](c3nc(-c4ccc(Cl)cc4)no3)N(C)C2)cc1	active: 56.2 µM
CN(CCCO)C(=O)c1cccc(CC2CCNCC2)c1	inconclusive: 25.1 µM [inhibitor, full curve]
O=C1C2CN(Cc3ccccc3Cl)CCC2OCCN1Cc1ccccc1 (stereo unspecified)	inconclusive: 100 µM [inhibitor, partial curve, poor fit]
COc1ccc(NC(=O)N2CCCC(Cn3cnc4cccnc43)C2)cc1OC (stereo unspecified)	inactive
O=C(NC1CC1)c1ccccc1OCC1CCCN(CC2=Cc3ccccc3OC2)C1 (stereo unspecified)	active: 39.8 µM
Cc1noc(-c2ccc(OC3CN(C(=O)NCCc4ccccc4)C3)cc2)n1	inconclusive: 79.4 µM [inhibitor, partial curve, poor fit]
CCOC(=O)C1CCCN(C(=O)c2ccc3oc(-c4ccc(OC)nc4)nc3c2)C1 (stereo unspecified)	inconclusive: 39.8 µM [inhibitor, single point]
COCCn1cc2c3c(cccc31)CN(C(=O)Cc1ccccc1C)CC2	inconclusive: 89.1 µM [inhibitor, partial curve, poor fit]
CCOc1ccc(CC(=O)NC2CCN(c3cc(-c4ccc(Cl)cc4)[nH]n3)CC2)cc1OCC	inconclusive: 70.8 µM [inhibitor, partial curve, poor fit]
O=C(c1ccncc1)N1CC2CCC(C1)N2Cc1ccc(-c2cccnc2)cc1	inconclusive: 35.5 µM [inhibitor, full curve]
CSc1cccc(NC(=O)O[C@@H]2CC[C@]3(C)C(CC[C@@H](O)[C@H]3CC(=O)NCc3ccccc3)[C@]2(C)CO)c1 (stereo partly specified)	active: 35.5 µM
Cc1ccc(NC(=O)O[C@@H]2CC[C@]3(C)[C@H](CC[C@H]4OC(=O)C[C@H]43)[C@]2(C)CO)cc1	inactive
CCC(=O)Nc1ccc(C2(C(=O)NCc3ccc(Br)cc3)CCC2)cc1	inactive
NC1CCCCN(Cc2cc3ccccc3o2)C1 (stereo unspecified)	inconclusive: 79.4 µM [inhibitor, partial curve]
CSc1ccc(-c2cccc(C(=O)NCC(=O)NC3CCCCCC3)c2)cc1	inconclusive: 39.8 µM [inhibitor, partial curve]
Cc1cc(C)c(S(=O)(=O)N2CC(c3nc(Cc4ccccc4)no3)C2)c(C)c1	inconclusive: 44.7 µM [inhibitor, partial curve, poor fit]
CNC(=O)c1cc(Nc2cccc(N(C)C)c2)cc2c1OCCN2Cc1cccnc1	inconclusive: 89.1 µM [inhibitor, partial curve]

SMILES	Potency
COc1cccc(-c2cn3cc(C(=O)NCCc4ccccc4)nc3s2)c1	inconclusive: 50.1 µM [inhibitor, partial curve, poor fit]
Cc1noc2c(NC3CCN(C)CC3)cc(-c3ccccc3)nc12	active: 100 µM
CC(=O)NCC(=O)N1CCC(n2cc(-c3nc(-c4ccccc4)no3)nn2)CC1	inactive
O=C(NCCCc1ccccc1)c1cn2cc(-c3ccc(F)cc3)sc2n1	inconclusive: 44.7 µM [inhibitor, partial curve, poor fit]
CC1(c2ccccc2)N(Cc2cccnc2)C(=O)OC12CCN(Cc1ccccc1O)CC2 (stereo unspecified)	inconclusive: 79.4 µM [inhibitor, partial curve, poor fit]
CC(=O)N1CCN(C(=O)c2cn3cc(-c4ccc(C(F)(F)F)cc4)sc3n2)CC1	inconclusive: 50.1 µM [inhibitor, partial curve, poor fit]
O=C1NCCCCCCN(S(=O)(=O)c2ccc3c(c2)CCC3)[C@H]2CCCC[C@@H]12	inconclusive: 89.1 µM [inhibitor, single point]
Cn1cc(C(=O)NCC2CN(C(=O)Cc3cccc(Oc4ccccc4)c3)CC23CN(c2ccccc2)C3)cn1 (stereo unspecified)	inconclusive: 89.1 µM [inhibitor, single point]
c1ccc2sc([C@H]3CCN(Cc4ccc5c(c4)OCO5)C3)nc2c1	inconclusive: 112 µM [inhibitor, partial curve, poor fit]
COC(=O)c1ccc(CNC(C)c2cnc(-c3ccncc3)nc2C)cc1 (stereo unspecified)	inactive
Cc1ccc(C(=O)N2CCC(c3nnc(Cn4cncn4)n3C)CC2)cc1F	inactive
COc1ccc(N2CCN(c3nc(C(=O)NC4CCCCCC4)cs3)CC2)cc1	inconclusive: 44.7 µM [inhibitor, partial curve, poor fit]
CCOC(=O)C[C@@H]1C[C@@H](C(C)C)[C@H](CNS(=O)(=O)c2ccc(NC(C)=O)cc2)C=C1C	inconclusive: 50.1 µM [inhibitor, partial curve, poor fit]
O=C(NCc1ccncc1)c1nc2c(o1)CCN(Cc1nccs1)CC2	inconclusive: 44.7 µM [inhibitor, partial curve, poor fit]
Cn1cc(C(=O)NCC2CN(C(=O)c3ccc(Oc4ccccc4)cc3)CC23CN(c2ccccc2)C3)cn1 (stereo unspecified)	inconclusive: 50.1 µM [inhibitor, partial curve, poor fit]
O=C(NCCc1ccccc1)C1CCN(c2nccc(Nc3ccccc3Cl)n2)CC1	inconclusive: 17.8 µM [inhibitor, full curve]
CCN1c2cc(C(=O)N3CCN(c4ccccn4)CC3)ccc2C(=O)N2CCCCCC21 (stereo unspecified)	inconclusive: 50.1 µM [inhibitor, partial curve]
CCc1ccc(S(=O)(=O)Nc2cccn3nc(CC)nc23)cc1	inconclusive: 89.1 µM [inhibitor, single point]
CNC(=O)C1CN(c2ccccc2)C(=O)N1 (stereo unspecified)	inactive
Cc1ccc(C(=O)NC2CCN(c3cc(-c4ccccc4)[nH]n3)C2)cc1 (stereo unspecified)	inconclusive: 50.1 µM [inhibitor, partial curve, poor fit]
